Hit rate of the full screen: of about 150,000 compounds, about 540 (0.36%) showed an effect of 50% or more. The list shows a part of the results.
System: Plasmodium falciparum
Assay: Primary screen in NF54 nanoGlo assay, in single point, at 2uM, 72h; a lower Z score goes with more inhibition
Format: functional, Erythrocyte
Conditions: timepoint 72 hour

| SMILES | % Inhibition [%] | Z score |
| --- | --- | --- |
| Cc1ccc(Br)c(C(=O)NCCc2nc(C)no2)n1 | -4 | 0.75 |
| COc1ccccc1OCCn1c(C)cc(C(F)(F)F)cc1=O | 4 | -0.83 |
| CCN(Cc1noc(CC(C)C)n1)C(=O)CCc1nc2ccccc2[nH]1 | 3 | -0.57 |
| N#Cc1ccc(C(=O)N2C[C@@H]3CC[C@H]2CN(Cc2ccccc2)C3)cc1 | -14 | 1.83 |
| O=C(O)c1ccc(-c2n[nH]c(=O)c3c2CCCC3)cc1 | 31 | -4.53 |
| Oc1ccc([C@@H](c2cn(-c3nc(-c4ccc(Cl)cc4)cs3)nc2-c2ccccc2)c2c(-c3ccccc3)nn(-c3nc(-c4ccc(Cl)cc4)cs3)c2O)cc1 | 34 | -0.91 |
| Cc1cccc(-n2nc(C)nc2CNC(=O)N(C)C)c1 | -14 | 1.5 |
| O=S1(=O)CCc2nnc(-c3cccc(OC(F)F)c3)n2CC1 | 13 | -1.63 |
| CCOC(=O)N1CCC(NC(=O)c2ccc(O)nc2)CC1 | -3 | 0.48 |
| Cc1nc(N2CCN(C)CC2)cc(N2CCN(C(=O)Cc3ccccc3)CC2)n1 | 0 | -0.04 |
| Cc1nc2ccncc2cc1C(=O)N1CCN(C)C(=O)C1 | -1 | 0.08 |
| CN(C)[C@@H](CN=C1CCCCCN1)c1ccccc1 | -6 | 1.17 |
| Nc1ccnc(COc2ccc(OCC(F)(F)F)cc2)n1 | 15 | -2.06 |
| Cc1cc(F)c(Br)cc1NC(=O)CCc1nnc[nH]1 | 2 | -0.23 |
| O=C1COc2ncc(C(=O)N3CCCC[C@H]3c3noc(C4CC4)n3)cc2N1 | 2 | -0.29 |
| Cc1ccc(-n2nc3c(=O)n([C@@H](C)C(=O)NCc4cccc(C)c4)nc(C)c3c2C)cc1 | 14 | -1.67 |
| CC(C)C(=O)N1CCN(C(=O)c2ccc(F)c(F)c2)[C@H]2CS(=O)(=O)C[C@H]21 | -6 | 0.9 |
| O=C1C[C@@H](C(=O)Nc2cccc(Cl)c2)n2ncc(-c3ccc(F)cc3)c2N1 | 2 | -0.28 |
| CN1CCO[C@H](CNC(=O)N[C@H]2CCOC2)[C@H]1c1cnn(C)c1 | -4 | 0.84 |
| CCc1onc(C)c1[C@@H]1CCCN1C(=O)Nc1cccc(OC)c1 | -1 | 0.13 |
| Cc1nc(N2CCN(C)CC2)cc(N2CCN(C(=O)c3c(F)cccc3F)CC2)n1 | -29 | 2.59 |

| SMILES | % Inhibition [%] | Z score |
| --- | --- | --- |
| CCN(CC(=O)Nc1c(F)cccc1F)C(=O)Cc1csc(-c2ccccc2)n1 | -16 | 3.23 |
| CCc1nn(C)c(=O)c2cc(S(=O)(=O)NCc3ccc(F)cc3Cl)cn12 | 2 | -0.23 |
| CN(Cc1c[nH]cn1)S(=O)(=O)CCc1cccc(Cl)c1 | 5 | -0.64 |
| COc1ccc2c(c1)OC(C)(C)CN(C(=O)Nc1ccncc1C)C2 | 1 | -0.15 |
| Cc1n[nH]c(C)c1-c1nc(C(F)(F)F)nn1C | -6 | 0.62 |
| Cc1nc([C@@H]2CCCN2c2c(C#N)c(=O)n(C)c(=O)n2C)no1 | -29 | 3.42 |
| CC(C)COC(=O)Nc1cccc(NC2CCOCC2)c1 | -8 | 0.79 |
| Cc1ccccc1-n1nc(C(=O)N2CCN(c3ccc(F)cc3)CC2)nc1-c1ccccc1 | -2 | 0.29 |
| Cc1cccnc1NS(=O)(=O)c1ccc2c(c1)CCN2 | -31 | 3.65 |
| COCc1noc(Cn2ccnc2C(C)C)n1 | -8 | 1.56 |
| Cc1cc(Br)cc(S(=O)(=O)N(C)C(C)(C)C#N)c1 | -12 | 1.4 |
| CCc1nnsc1C(=O)NC1CC(C)N(C2CC2)C1 (stereo not drawn) | -5 | 0.41 |
| CCc1cc(-c2n[nH]c(N)c2-c2nc(C)cs2)c(O)cc1OCc1ccccc1Cl | 7 | -1.06 |
| CCOC(=O)c1oc(NC(=O)c2ccnc(C)c2)nc1C(F)(F)F | -9 | 1.22 |
| OCC[C@H]1CN(c2ncnc3[nH]ccc23)CCN1CCc1ccccc1 | -9 | 1.17 |
| Cc1c(Cl)cccc1-n1ncnc1CCN1CCCC1=O | -11 | 0.99 |
| COc1ncccc1CNC(=O)N1CCN(c2nccs2)CC1 | 3 | -0.63 |
| CCn1cc(CN2CCC([C@]3(C)NC(=O)N(C4Cc5ccccc5C4)C3=O)CC2)c(C)n1 | -11 | 1.44 |
| O=C(N[C@@H]1CCCC[C@H]1OC(F)F)c1cnc2n1CCOC2 | -8 | 1.37 |
| Cc1ccc(CC(=O)N2CC[C@H](CN3CCOC3=O)C2)cc1O | 0 | 0.04 |
| O=C(COc1ccc(-n2cccn2)cc1)NCC1CCC1 | -14 | 1.26 |

| SMILES | % Inhibition [%] | Z score |
| --- | --- | --- |
| CCc1noc(NC(=O)[C@H](C)n2cc(C)cn2)c1C | 0 | 0.07 |
| CC(C)n1c(-c2nccn2CC2(N(C)C)CCOCC2)nc2ccccc21 | -18 | 1.81 |
| CC(=O)c1ccc(N2CCN(C(=O)c3ccc(-n4cccn4)nn3)CC2)cc1 | -11 | 2.14 |
| COCCC1(c2noc([C@@H](C)c3cnn(C)c3)n2)CCCC1 | -11 | 1.52 |
| COc1ccc(-n2nc(C)c3sc(N4CCCN(C(=O)c5ccc(F)cc5Cl)CC4)nc32)cc1 | -16 | 1.79 |
| Cc1ccc(NC(=O)CN2C(=O)C(C)(C)c3cc(C)ccc32)c(Br)c1 | -9 | 1.59 |
| Cc1nc(C(C)(C)NCCOc2ccccc2C(=O)O)sc1C | 8 | -0.95 |
| CC(C)c1nnc2n1CCN(Cc1cn(C)nn1)[C@H]2C | -1 | 0.08 |
| NCC(=O)N1CCC[C@H](Oc2ccc(Cl)c(Cl)c2)C1 | -17 | 2.4 |
| O=C1CCCN1CCCN1C(=O)[C@H]2CN(Cc3ccc(F)cc3F)C[C@H]2C1=O | -7 | 0.9 |
| CCN1C[C@@H](CN(C)C(=O)c2ccc(-c3ccc4c(c3)OCO4)cc2)CC1=O | 8 | -1.04 |
| CC1(C)C[C@@H](c2noc(-c3ccc(F)cc3)n2)CCO1 | -7 | 1.33 |
| CC(=O)OCc1c(C)n(C)c(=O)n(C)c1=O | 37 | -4.76 |
| Cc1cc(C(=O)N[C@@H](C)CO)c(C)n1-c1nccs1 | 37 | -4.83 |
| N#Cc1ccc(NCCCc2cc[nH]n2)nc1 | -3 | 0.56 |
| Cc1cccn2cc(CN(C)C[C@H](C)c3nccs3)nc12 | -8 | 1.47 |
| COC[C@H](C)NCc1cc2cc3c(cc2nc1-c1ccc(F)cc1)OCO3 | -8 | 1.64 |
| Cn1nc(C(F)(F)F)cc1B1OC(C)(C)C(C)(C)O1 | 41 | -4.6 |
| CCc1ccc(C2CC(C)CCN2C(=O)c2ccc3[nH]c(=O)[nH]c3n2)o1 (stereo not drawn) | -1 | 0.27 |
| CCc1nsc(N[C@H]2CCCc3nn(C)cc32)n1 | 5 | -0.96 |
| CN(C)[C@H]1CN(C(=O)Nc2cc(C(C)(C)C)ccc2C(C)(C)C)C[C@@H]1O | -19 | 3.46 |

| SMILES | % Inhibition [%] | Z score |
| --- | --- | --- |
| CCCN(CC(=O)N(Cc1ccccc1)Cc1ccc(C)o1)C(=O)Cc1ccc(F)cc1 | -9 | 1.17 |
| CC1CCCN(S(=O)(=O)N2CCOC3CCCCC32)C1 (stereo not drawn) | -5 | 0.77 |
| Cc1cc(C(=O)NC2(c3ncccn3)CCOCC2)c(C)s1 | -4 | 0.7 |
| Cc1nc(CN(c2cccc(CO)c2)C2Cc3ccccc3C2)no1 | -8 | 0.64 |
| COC(=O)CC1(NC(=O)Cc2c[nH]c3ccccc23)CCCC1 | -3 | 0.36 |
| Cc1cccc(C(=O)N2CC(=O)Nc3cnccc32)c1Cl | -14 | 1.32 |
| CCNC(=O)N(CCOC)Cc1ccc(N(CC)CC)cc1OS(=O)(=O)c1ccc(OC)cc1 | 0 | -0.03 |
| NCC(=O)Nc1ccc(-c2ncc3n2CCCC3)cc1 | -9 | 1.22 |
| Cc1ccc(-n2nc3c(N4CCC(C(=O)NCCCN5CCCCC5)CC4)nnc(C)c3c2C)cc1 | 20 | -2.35 |
| COCc1ncc(C)n1[C@H]1CCCN(C(=O)c2cnccc2C)C1 | -14 | 1.72 |
| O=C1NC(=O)[C@H](CCC(=O)N(Cc2ccco2)C2CC2)N1 | -9 | 1.67 |
| O=C(c1c[nH]c2ccccc12)N1CCN(S(=O)(=O)c2ccc3ccccc3c2)CC1 | -15 | 1.35 |
| COCCC1(c2noc(C3(C#N)CCCCC3)n2)CCCC1 | 1 | -0.13 |
| CC[C@@H]1C(=O)NCCCN1C(=O)c1cccc2c1ccn2CC(C)C | -2 | 0.26 |
| CC[C@H](C)n1ncc(NC(=O)C(C)(C)C2CCC2)c1C | 0 | 0 |
| Fc1ccc(-n2nc(Cn3cncn3)nc2C[C@H]2CNCCO2)cc1Cl | -7 | 1.23 |
| CCOC(=O)c1cnn(-c2cccc(NS(=O)(=O)c3cc(C)ccc3O)c2)c1C(F)(F)F | -6 | 0.66 |
| O[C@H](COc1ccccc1-c1cccnc1)CN1CCOCC1 | -10 | 1.54 |
| O=C(CCC(=O)N1CCCN(c2nc3cccnc3s2)CC1)Nc1ccccc1Cl | -14 | 1.41 |
| O=C(NCC[C@H](O)c1ccoc1)C(=O)NCc1ccc(F)cc1 | -8 | 0.97 |
| O=S1(=O)CC[C@H](CNc2ccc3ccc(Cl)c(Cl)c3n2)C1 | -16 | 1.42 |

— ChEMBL document CHEMBL4888484, “Replenishing the malaria drug discovery pipeline: Screening and hit evaluation of the MMV Hit Generation Library 1 (HGL1) against asexual blood stage Plasmodium falciparum ,using a nano luciferase reporter read-out” (2022)
